Results published in patent publication US11446388B2, “Amanitin antibody conjugates” ([…] Research GmbH, priority 2016, dated 2022).

How the values were obtained:
NCI-H929 = assay: J22.9-ISY binding (FACS); design: species or system human; settings: NCI-H929, flow cytometry
MM.1S Luc = assay: J22.9-ISY binding (FACS); design: species or system human; settings: flow cytometry
[1] = tested on: NCI-H929 subcutaneous xenograft; assay: NCI-H929 subcutaneous xenograft, single dose; assay type: in vivo, mouse
Method: Once tumor volume reached 80 mm^3, mice (8 animals per group) were treated intravenously with single doses (2 or 4 mg/kg) of J22.9-ISY-D265C-30.2115 or J22.9-ISY-D265C-30.1699, or were treated with PBS as control.. Tumor volumes were monitored twice per week.
Antitumor activity of J22.9-ISY-D265C-30.2115 and J22.9-ISY-D265C-30.1699 was tested in a subcutaneous NCI-H929 (see Table 3 for details of cell line) mouse xenograft model.

[2] = tested on: BCMA-positive NCI-H929 cells; assay: Plasma stability: cell-based cytotoxicity assay after incubation in plasma or PBS; design: species or system human
Method: J22.9-ISY-D265C-30.2115 (A) and J22.9-ISY-D265C-30.1699 (B) were incubated in PBS for control, or human, cynomolgus or mouse plasma for 0, 4, and 10 days at 37° C. and analysed for remaining cellular toxicity potential using BCMA-positive NCI-H929 cells.
Plasma stability of both ADC variants was confirmed in a cell-based cytotoxicity assay on BCMA-positive NCI-H929 cells (see Table 2) after incubation for 0, 4 and 10 days in PBS, human, cynomolgus or mouse plasma.

MM.1S Luc xenograft = assay: Disseminating intravenous MM.1S Luc xenograft model, single dose; assay type: in vivo, mouse; settings: single doses of 2 and 4 mg/kg
Method: (§1) When reaching a mean flux of 1.5×10^6-1×10^7 (10-14 days after implantation) 8-10 mice per group were treated with single doses (2 and 4 mg/kg) of J22.9-ISY-D265C-30.1699, J22.9-ISY-D265C-30.2115 or PBS as control. Luciferase activity was monitored by non-invasive bio-imaging twice weekly, 10 minutes after administration of luciferin (10 μl/g body weight). (B) Individual tumor growth curves for each animal are depicted. Individual Growth curves are shown for groups treated with 2 mg/kg (solid line) and 4 mg/kg (dashed line) of J22.9-ISY-D265C-30.2115.
as §1, with “doses (0.1, 0.3, 1” for “doses (2”, “and 2” for “and 4”, “of” for “of J22.9-ISY-D265C-30.1699,”, “depicted.” for “depicted. Individual”, “with 1” for “with 2”
The antitumor activity of J22.9-ISY-D265C-30.1699 and J22.9-ISY-D265C-30.2115 was further tested in a disseminating intravenous MM.1S Luc xenograft model at doses of 2 and 4 mg/kg. […]

B1: J22.9-ISY-D265C: Thiomab of J22.9-ISY with D265C (and R214K) in heavy chain, SEQ ID NO: 1 and 2 (antibody)
heavy: EVQLVESGGGLVQPGGSLRLSCAASGFTFSRYWISWVRQAPGKGLVWVGEINPSSSTINYAPSLKDKFTISRDNAKNTLYLQMNSLRAEDTAVYYCASLYYDYGDAYDYWGQGTLVTVSSASTKGPSVFPLAPSSKSTSGGTAALGCLVKDYFPEPVTVSWNSGALTSGVHTFPAVLQSSGLYSLSSVVTVPSSSLGTQTYICNVNHKPSNTKVDKKV[human IgG1 Fc with D265C (EU numbers) not shown]
light: EIVMTQSPATLSVSPGERATLSCKASQSVESNVAWYQQKPGQAPRALIYSASLRFSGIPARFSGSGSGTEFTLTISSLQSEDFAVYYCQQYNNYPLTFGAGTKLELKRTVAAPSVFIFPPSDEQLKSGTASVVCLLNNFYPREAKVQWKVDNALQSGNSQESVTEQDSKDSTYSLSSTLTLSKADYEKHKVYACEVTHQGLSSPVTKSFNRGEC
modifications: Humanized J22.9 heavy chain J22.9-ISY-D265C; Humanized J22.9 light chain
NCI-H929
  binding property to BCMA-positive cells compared with J22.9-ISY: identical to J22.9-ISY antibody
MM.1S Luc
  binding property to BCMA-positive cells compared with J22.9-ISY: identical to J22.9-ISY antibody

B2: J22.9-ISY-D265C-30.1699 (conjugate)
heavy: EVQLVESGGGLVQPGGSLRLSCAASGFTFSRYWISWVRQAPGKGLVWVGEINPSSSTINYAPSLKDKFTISRDNAKNTLYLQMNSLRAEDTAVYYCASLYYDYGDAYDYWGQGTLVTVSSASTKGPSVFPLAPSSKSTSGGTAALGCLVKDYFPEPVTVSWNSGALTSGVHTFPAVLQSSGLYSLSSVVTVPSSSLGTQTYICNVNHKPSNTKVDKKV[human IgG1 Fc with D265C (EU numbers) not shown]
light: EIVMTQSPATLSVSPGERATLSCKASQSVESNVAWYQQKPGQAPRALIYSASLRFSGIPARFSGSGSGTEFTLTISSLQSEDFAVYYCQQYNNYPLTFGAGTKLELKRTVAAPSVFIFPPSDEQLKSGTASVVCLLNNFYPREAKVQWKVDNALQSGNSQESVTEQDSKDSTYSLSSTLTLSKADYEKHKVYACEVTHQGLSSPVTKSFNRGEC
[1]; single doses 2 or 4 mg/kg
  statistically significant body weight reduction: except for J22.9-ISY-D265C-30.1699 at 4 mg/kg doses
[1]; single treatment 2 mg/kg iv
  initial response followed by regrowth of tumor: 7 of 8
[1]; single treatment 4 mg/kg iv
  complete tumor remission: 8 of 8
[2]; PBS pH 7.4, day 0, 37° C.
  EC50: 0.16 nM
[2]; PBS pH 7.4, day 4, 37° C.
  EC50: 0.36 nM
[2]; PBS pH 7.4, day 10, 37° C.
  EC50: 0.6 nM
[2]; cynomolgus plasma, day 0, 37° C.
  EC50: 0.2 nM
[2]; cynomolgus plasma, day 4, 37° C.
  EC50: 2.1 nM
[2]; human plasma, day 0, 37° C.
  EC50: 0.18 nM
[2]; human plasma, day 4, 37° C.
  EC50: 370 nM
[2]; incubation in PBS or plasma up to 10 days
  influence of incubation on cytotoxic potential: clearly reduced
[2]; mouse plasma, day 0, 37° C.
  EC50: 0.086 nM
[2]; mouse plasma, day 4, 37° C.
  EC50: 2 nM
MM.1S Luc xenograft
  slight regrowth of tumor after initial response for over 90 days: 1 of 10
